# Reference: PubChem BioAssay AID588591 (National Center for Advancing Translational Sciences (NCATS), 2011)
# The campaign covered roughly 390,000 compounds. About 4,700 (1.2%) were called active. Inconclusive means that the source gave no clear call. Such entries were picked first, then a sample of the others. Calls come from the whole dose curve; as a rule, active = well fitted inhibition curve with a large enough effect; inconclusive = small, poorly fitted or top-dose-only effect, or another doubt; inactive = no such curve, though single readings can be large or run the other way. Where the call is inconclusive, the potency comes from a doubtful curve fit. Where a structure was tested more than once in an assay, its records may differ in their call.
# Molecular target: DNA polymerase eta (Homo sapiens) (UniProt Q9Y253)
# Chain of UniProt Q9Y253 (Q9Y253 whole entry, looked up): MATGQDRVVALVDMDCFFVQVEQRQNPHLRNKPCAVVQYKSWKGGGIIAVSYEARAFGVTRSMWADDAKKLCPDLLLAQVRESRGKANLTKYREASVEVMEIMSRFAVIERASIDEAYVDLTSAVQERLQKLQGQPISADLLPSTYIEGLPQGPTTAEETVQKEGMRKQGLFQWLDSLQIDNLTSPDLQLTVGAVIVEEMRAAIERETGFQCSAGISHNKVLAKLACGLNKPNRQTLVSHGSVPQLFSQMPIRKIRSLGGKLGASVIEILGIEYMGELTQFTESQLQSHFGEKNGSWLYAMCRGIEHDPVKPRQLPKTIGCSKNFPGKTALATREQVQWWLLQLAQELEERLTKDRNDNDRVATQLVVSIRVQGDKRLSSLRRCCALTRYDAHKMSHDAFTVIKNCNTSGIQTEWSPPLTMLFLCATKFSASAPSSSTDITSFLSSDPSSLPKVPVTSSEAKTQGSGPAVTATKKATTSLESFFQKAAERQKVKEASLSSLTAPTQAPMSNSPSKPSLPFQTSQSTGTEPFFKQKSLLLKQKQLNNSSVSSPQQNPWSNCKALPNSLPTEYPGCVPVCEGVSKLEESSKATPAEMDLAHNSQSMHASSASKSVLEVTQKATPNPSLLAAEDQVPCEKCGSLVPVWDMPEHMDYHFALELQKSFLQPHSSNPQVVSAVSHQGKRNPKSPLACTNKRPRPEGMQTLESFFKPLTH
# Assay: qHTS for Inhibitors of Polymerase Eta
# Settings: recombinant Pol eta, fluorescent DNA replication assay; series mostly up to 114 µM
# Outline: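 Pol eta (10 nM) was preincubated with compounds for 15 min at room temperature, after which fluorescent replication substrate (50 nM final) was added to start the reaction. Fluorescence was read kinetically at 0 and 10 min.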
# Potency is the fitted concentration of half-maximal effect; tags give direction and shape of the fitted curve.
row,SMILES,Potency
1,CCN(C(=O)C1CCN(S(=O)(=O)c2cc(Br)cc3c2N(C(C)=O)CC3)CC1)c1cccc(C)c1,inactive
2,O=C1CC(N2CCN(c3cccc(C(F)(F)F)c3)CC2)C(=O)N1c1ccccc1F (stereo not given),"inconclusive: 89.1 µM [inhibitor, partial curve, poor fit]"
3,CC1=NN(c2ccccc2)C(=O)/C1=C\c1ccc(Br)s1,active: 89.1 µM
4,O=C(O)/C=C/C(=O)Nc1ccc(O)cc1,"inconclusive: 79.4 µM [inhibitor, single point]"
5,CC1=CCC2C(=O)N(c3nc4ccccc4n3C)C(=O)C2C1 (stereo not given),"inconclusive: 100 µM [inhibitor, single point]"
6,O=S(=O)(Nc1nccs1)c1ccc(NS(=O)(=O)c2c(F)cc(F)c(Cl)c2F)cc1,active: 50.1 µM
7,COc1cc(/C=N/NC(=O)c2cccc(C(=O)N/N=C/c3ccc(O)c(OC)c3)n2)ccc1O,"inconclusive: 2 µM [inhibitor, partial curve, poor fit]"
8,CC1=CC2=NC(=O)/C(=C\c3ccc(-c4cccc(Cl)c4)o3)C(=N)N2O1,active: 5.62 µM
9,CC(C)=CCC1=C(OCC(=O)O)C(=O)c2ccccc2C1=O,active: 22.4 µM
10,Cc1cc(C)c2c(c1)NC(C(=O)O)C1CC=CC21 (stereo not given),active: 11.2 µM
11,CC1=C(C(=O)OCC2CCCO2)C(c2cccc(C(F)(F)F)c2)C2=C(CC(c3ccco3)CC2=O)N1 (stereo not given),"inconclusive: 28.2 µM [inhibitor, partial curve, poor fit]"
12,CCCNC(=O)COC(=O)c1c2c(nc3ccccc13)CCC2,active: 50.1 µM
13,N[C@@H](Cc1cc(I)c(Oc2ccc(O)c(I)c2)c(I)c1)C(=O)O,active: 31.6 µM
14,CC(=O)c1ccc(N2CCN(S(=O)(=O)c3ccc(-c4coc(C)n4)cc3)CC2)cc1,active: 79.4 µM
15,N#CC1=C(O)C(c2ccccc2)n2c1nc(=O)c1ccccc12 (stereo not given),"inconclusive: 25.1 µM [inhibitor, partial curve, poor fit]"
16,COc1ccc(Cc2nn3c(Cn4nnc5ccccc54)nnc3s2)cc1,"inconclusive: 14.1 µM [inhibitor, full curve, poor fit]"
17,S=C(NCc1ccco1)N/N=C/c1ccccc1Cl,"inconclusive: 56.2 µM [inhibitor, partial curve, poor fit]"
18,CCOC(=O)/C(=C/c1c2ccccc2cc2ccccc12)NC(=O)c1ccccc1,"inconclusive: 39.8 µM [inhibitor, partial curve, poor fit]"
19,Cc1ccc(/C=N/N2CCN(C3c4ccccc4-c4ccccc43)CC2)o1,"inconclusive: 79.4 µM [inhibitor, partial curve, poor fit]"
20,C/C(=N\Nc1ccc(C(=O)O)cc1)c1ccc2c(c1)Nc1ccccc1S2,active: 25.1 µM
21,NC(=O)c1ccc(N=C2C(=O)Nc3ccc([N+](=O)[O-])cc32)cc1,active: 20 µM
22,Cc1cccc(NC(=O)c2ccc(N(Cc3ccccc3)S(C)(=O)=O)cc2)c1,inactive
23,CC1CCc2sc3ncn4nc(C(=O)NCc5ccco5)nc4c3c2C1 (stereo not given),"inconclusive: 17.8 µM [inhibitor, partial curve, poor fit]"

row,SMILES,Potency
1,O=C1CCCC(O)=C1N=Nc1cccc(C(=O)O)c1,active: 10 µM
2,COc1ccc(N)c2c1C(=O)c1ccccc1C2=O,inactive
3,O=C(Nc1nc(-c2ccccc2)cs1)c1ccccc1NS(=O)(=O)c1ccc(F)cc1,active: 50.1 µM
4,O=C(/C=C/c1ccccc1Cl)Nc1ccc2c(c1)C(=O)NC2=O,"inconclusive: 17.8 µM [inhibitor, full curve]"
5,Cc1cc2oc(C(=O)Nc3c(C(=O)Nc4ccccc4)oc4ccccc34)cc(=O)c2cc1C,inactive
6,CCN(CC)S(=O)(=O)c1ccc2c(c1)nc(CCC(=O)Nc1ccc3c(c1)OCO3)n2C,"inconclusive: 31.6 µM [inhibitor, partial curve, poor fit]"
7,CN(CC(=O)Nc1ccc(Cl)c(C(F)(F)F)c1)C(=O)c1ccc(S(=O)(=O)N2CCOCC2)cc1,"inconclusive: 89.1 µM [inhibitor, single point]"
8,COc1ccc(N=C2NC(=O)/C(=C/c3ccco3)S2)cc1,inactive
9,CCOC(=O)c1c(C)[nH]c(CCC(=O)Nc2cc(C)ccc2OC)c1C,inactive
10,Cc1cc(C)c(S(=O)(=O)N2CCN(C(=O)c3c(C)noc3C)CC2)c(C)c1,"inconclusive: 100 µM [inhibitor, partial curve, poor fit]"
11,CCN(CC)C(=O)CSC1=N/C(=C/c2ccco2)C(=O)N1c1ccc(OC)c(Cl)c1,"inconclusive: 17.8 µM [inhibitor, partial curve, poor fit]"
12,COc1cccc(/C=C(/C(=O)OCC(=O)NC2CCCC(C)C2C)c2ccccc2)c1 (stereo not given),"inconclusive: 70.8 µM [inhibitor, partial curve, poor fit]"
13,COc1cc(OC)c(NC(=O)C2CCCN(c3ncnc4c3nc3n4CCCCC3)C2)cc1Cl (stereo not given),inactive
14,O=C(COc1ccccc1Cl)NCC1(N2CCOCC2)CCCCC1,inactive
15,Cc1cc2nnc(SCC(=O)Nc3ccc(F)c(Cl)c3)n2c2ccccc12,inactive
16,COc1ccc(OC)c(/C=N/c2oc(-c3ccco3)c(-c3ccco3)c2C#N)c1,active: 79.4 µM
17,Cc1ccc(C)c(OCC(O)CN2CCC(CN3C(=O)c4cccc5cccc(c45)C3=O)CC2)c1 (stereo not given),"inconclusive: 3.55 µM [inhibitor, full curve, poor fit]"
18,O=C(COc1cccc(Cl)c1)Nc1ccc2c(c1)CCC2,"inconclusive: 89.1 µM [inhibitor, partial curve, poor fit]"
19,CCOc1cc(/C=C2\CCCC(C(=O)C(F)(F)F)=C2O)ccc1O,"inconclusive: 56.2 µM [inhibitor, partial curve, poor fit]"
20,CC1=NN(c2nc(-c3ccccc3)cs2)C(=O)C1,active: 50.1 µM
21,Cc1ccc(S(N)(=O)=O)cc1NC(=O)/C=C/c1cccs1,"inconclusive: 22.4 µM [inhibitor, single point]"
22,COC(=O)C1=C(CS(=O)(=O)c2cc(Cl)ccc2OC)NC(=O)NC1c1ccccc1 (stereo not given),"inconclusive: 79.4 µM [inhibitor, partial curve, poor fit]"
